Like-named read-outs stand apart in the source and are kept apart here. For some of these results: At least one read-out could not be matched to a standard name with certainty. For some of these results: At least one compound was matched to its structure with a doubt left.
Key:
[1] = test system: E. coli; assay: Checkerboard microdilution with sodium bicarbonate against E. coli; assay type: cell-based, Escherichia coli
Method: (§1) In the following experiments, bacterial cells were cultured in 96-well microtiter plates in cation-adjusted Mueller-Hinton Broth (MHB) for 18 h at 37° C. The main strains used were E. coli (K-12 BW25113) (placed in stationary incubator) and S. aureus (Newman Strain) (incubated at 250 r.p.m). Knockout strains (ΔtolcC and ΔychM) were used from the Keio knockout collection (Baba et al., Construction of Escherichia coli K-12 in-frame, single-gene knockout mutants: the Keio collection. Mol Syst Biol 2, 2006 0008, doi:10.1038/msb4100050 (2006)). For MIC determination and checkerboard analyses, Clinical & Laboratory Standards Institute (CLSI) protocol was used. […]
(§2) The effect of sodium bicarbonate on the activity of various antibacterial agents was investigated. […] Fractional inhibitory concentration indices (FICIs) were determined by setting up standard checkerboard broth microdilution assays in 96-well microtiter plates with serially diluted 8 (or 10) concentrations of each drug (sodium bicarbonate and the antibacterial agent). […] Plates were incubated at 37° C. for 18 hours, and optical density was read at 600 nm. […]
(§3) As validation, three of the antibiotic agents were further tested with checkerboard analyses. […] Plates were incubated at 37° C. for 18 hours, and optical density was read at 600 nm. […]

[2] = test system: S. aureus; assay: Checkerboard microdilution with sodium bicarbonate against S. aureus; assay type: cell-based, Staphylococcus aureus
Method: as §1, §2, §3

[3] = test system: E. coli; assay type: cell-based, Escherichia coli
Method: (§4) In the following experiments, bacterial cells were cultured in 96-well microtiter plates in cation-adjusted Mueller-Hinton Broth (MHB) for 18 h at 37° C. The main strains used were E. coli (K-12 BW25113) (placed in stationary incubator) and S. aureus (Newman Strain) (incubated at 250 r.p.m). Knockout strains (ΔtolcC and ΔychM) were used from the Keio knockout collection (Baba et al., Construction of Escherichia coli K-12 in-frame, single-gene knockout mutants: the Keio collection. Mol Syst Biol 2, 2006 0008, doi:10.1038/msb4100050 (2006)). For MIC determination and checkerboard analyses, Clinical & Laboratory Standards Institute (CLSI) protocol was used. […] DiSC3 loading of S. aureus cells was performed as previously described (Farha et al., Collapsing the proton motive force to identify synergistic combinations against Staphylococcus aureus. Chemistry & biology 20, 1168-1178, doi:10.1016/j.chembiol.2013.07.006 (2013)). CCCP concentration of 20 μM was used. pH adjustments were made by addition of HCl or NaOH. INT assay and ATP bioluminescence assays were performed as previously described (Farha et al., Collapsing the proton motive force to identify synergistic combinations against Staphylococcus aureus. Chemistry & biology 20, 1168-1178, doi:10.1016/j.chembiol.2013.07.006 (2013)). For chemical-genomic studies, the Keio library was grown overnight in cation-adjusted MHB broth, in 384-well plates. From these, treatment plates (25 mM sodium bicarbonate, or a sterile water control) were inoculated and grown for 15 hours at 37° C., in a stationary incubator. Data was normalized according to Mangat et al (Mangat et al., Rank ordering plate data facilitates data visualization and normalization in high-throughput screening. J Biomol Screen 19, 1314-1320, doi:10.1177/1087057114534298 (2014)), with gene products and GO terms mined from EcoCyc. The GFP promoter library (Keseler et al., EcoCyc: fusing model organism databases with systems biology. Nucleic Acids Res 41, D605-612, doi:10.1093/nar/gks1027 (2013)) was grown for 18 hours at ambient temperature with the same inoculation strategy as with the Keio collection. The analysis pipeline of Zaslaver et al (Zaslaver et al., A comprehensive library of fluorescent transcriptional reporters for Escherichia coli. Nat Methods 3, 623-628, doi:10.1038/nmeth895 (2006)) was used to generate maps of promoter activity, from which lists of promoters with increased or decreased activity were compiled.
(§5) Fold enhancement in MICs in the media supplemented with sodium bicarbonate is represented by a positive fold, whereas suppression of activity is represented by a negative fold.
(§6) The effect of sodium bicarbonate on the activity of additional antibacterial agents was investigated. Clinical isolates of various bacteria were obtained from the ATCC and the IHMA.
(§7) The effect of sodium bicarbonate on the activity of cationic antiseptic agents was investigated. Clinical isolates of various bacteria were obtained from the ATCC and the IHMA.

[4] = test system: S. aureus
Method: as §4, §5, §6, §7

[5] = test system: E. coli ΔtolC; assay: Dirithromycin potency analysis in efflux-deficient strain; assay type: cell-based, Escherichia coli; details: 25 mM sodium bicarbonate
[6] = test system: E. coli ΔychM; assay: Checkerboard dirithromycin and sodium bicarbonate in bicarbonate transporter-deficient strain; assay type: cell-based, Escherichia coli; details: E. coli ΔychM vs wild type
[7] = antibiotic agents, fold shift in MIC, MHB− vs MHB+

Row | Compound | Fold, E. coli [3, 7] | Fold, S. aureus [4, 7] | other results
1 | CCCCCCCCCCCCCCCC[n+]1ccccc1 [Cetylpyridinium chloride] | – | – | interaction with sodium bicarbonate (checkerboard) [1]: synergistic interactions; interaction with sodium bicarbonate (checkerboard) [2]: synergistic interactions
2 | CC[C@H]1OC(=O)[C@H](C)[C@@H](O[C@H]2C[C@@](C)(OC)[C@@H](O)[C@H](C)O2)[C@H](C)[C@@H](O[C@@H]2O[C@H](C)C[C@H](N(C)C)[C@H]2O)[C@](C)(O)C[C@@H](C)[C@@H]2N[C@@H](COCCOC)O[C@H]([C@H]2C)[C@]1(C)O [Dirithromycin] | – | – | Fold, E. coli [3]: 32; effect of 25 mM sodium bicarbonate on antibacterial activity [3]: potentiated; Fold, S. aureus [4]: 8; potentiation by sodium bicarbonate in efflux-deficient strain [5]: disappears and lost; potentiation by bicarbonate in ΔychM versus wild-type strain [6]: no difference
3 | CC[C@H]1OC(=O)[C@H](C)C(=O)[C@H](C)[C@@H](O[C@@H]2O[C@H](C)C[C@H](N(C)C)[C@H]2O)[C@](C)(OC)C[C@@H](C)C(=O)[C@H](C)[C@H]2N(CCCCn3cnc(-c4cccnc4)c3)C(=O)O[C@]12C [Telithromycin] | 8 | 8 | –
4 | C=C(NC(=O)C(=C)NC(=O)c1csc(C2=N[C@@H]3c4csc(n4)[C@H]4NC(=O)c5csc(n5)[C@H]([C@](C)(O)[C@@H](C)O)NC(=O)[C@H]5CSC(=N5)/C(=C/C)NC(=O)[C@H]([C@@H](C)O)NC(=O)c5csc(n5)[C@]3(CC2)NC(=O)[C@H](C)NC(=O)C(=C)NC(=O)[C@H](C)NC(=O)[C@H]([C@@H](C)CC)N[C@@H]2C=Cc3c([C@H](C)O)cc(nc3[C@H]2O)C(=O)O[C@@H]4C)n1)C(N)=O [Thiostrepton] | 1 | 4 | –
5 | CC1(C)S[C@@H]2[C@H](NC(=O)[C@H](C(=O)O)c3ccsc3)C(=O)N2[C@H]1C(=O)O [Ticarcillin] | −2 | −4 | –
6 | NC[C@H]1O[C@H](O[C@H]2[C@H](O)[C@@H](O[C@H]3O[C@H](CO)[C@@H](O)[C@H](N)[C@H]3O)[C@H](N)C[C@@H]2N)[C@H](N)C[C@@H]1O [Tobramycin] | 1 | −2 | –
7 | Oc1cc(Cl)ccc1Oc1ccc(Cl)cc1Cl [Triclosan] | 1 | 1 | –
8 | CN[C@H](CC(C)C)C(=O)N[C@H]1C(=O)N[C@@H](CC(N)=O)C(=O)N[C@H]2C(=O)N[C@H]3C(=O)N[C@H](C(=O)N[C@H](C(=O)O)c4cc(O)cc(O)c4-c4cc3ccc4O)[C@H](O)c3ccc(c(Cl)c3)Oc3cc2cc(c3O[C@@H]2O[C@H](CO)[C@@H](O)[C@H](O)[C@H]2O[C@H]2C[C@](C)(N)[C@H](O)[C@H](C)O2)Oc2ccc(cc2Cl)[C@H]1O [Vancomycin] | – | – | Fold, E. coli [3]: 1; Fold, S. aureus [4]: −4
